# Entries after “also recorded” stand apart in the source; their conditions may differ. At least one peptide structure holds a part that was inferred or is arguable (an end, a ring closure or a residue). Some compounds share one wording; it may come from a single statement. Bridge positions count the residues as written; N and C are the ends. Peptide text beside a SMILES is read from it. * marks the point of attachment. CH3O(CH2CH2O)11CH2CH2CO = COCCOCCOCCOCCOCCOCCOCCOCCOCCOCCOCCOCCC(=O)*
# Target: T1, NPR-B (Mus musculus, UniProt Q6VVW5)
# T1 construct: Murine NIH3T3 cells express endogenously the CNP signaling receptor, NPR-B; endogenous in cells; host or cells: NIH3T3 (murine fibroblasts)
# T1 sequence (Q6VVW5 17-1047): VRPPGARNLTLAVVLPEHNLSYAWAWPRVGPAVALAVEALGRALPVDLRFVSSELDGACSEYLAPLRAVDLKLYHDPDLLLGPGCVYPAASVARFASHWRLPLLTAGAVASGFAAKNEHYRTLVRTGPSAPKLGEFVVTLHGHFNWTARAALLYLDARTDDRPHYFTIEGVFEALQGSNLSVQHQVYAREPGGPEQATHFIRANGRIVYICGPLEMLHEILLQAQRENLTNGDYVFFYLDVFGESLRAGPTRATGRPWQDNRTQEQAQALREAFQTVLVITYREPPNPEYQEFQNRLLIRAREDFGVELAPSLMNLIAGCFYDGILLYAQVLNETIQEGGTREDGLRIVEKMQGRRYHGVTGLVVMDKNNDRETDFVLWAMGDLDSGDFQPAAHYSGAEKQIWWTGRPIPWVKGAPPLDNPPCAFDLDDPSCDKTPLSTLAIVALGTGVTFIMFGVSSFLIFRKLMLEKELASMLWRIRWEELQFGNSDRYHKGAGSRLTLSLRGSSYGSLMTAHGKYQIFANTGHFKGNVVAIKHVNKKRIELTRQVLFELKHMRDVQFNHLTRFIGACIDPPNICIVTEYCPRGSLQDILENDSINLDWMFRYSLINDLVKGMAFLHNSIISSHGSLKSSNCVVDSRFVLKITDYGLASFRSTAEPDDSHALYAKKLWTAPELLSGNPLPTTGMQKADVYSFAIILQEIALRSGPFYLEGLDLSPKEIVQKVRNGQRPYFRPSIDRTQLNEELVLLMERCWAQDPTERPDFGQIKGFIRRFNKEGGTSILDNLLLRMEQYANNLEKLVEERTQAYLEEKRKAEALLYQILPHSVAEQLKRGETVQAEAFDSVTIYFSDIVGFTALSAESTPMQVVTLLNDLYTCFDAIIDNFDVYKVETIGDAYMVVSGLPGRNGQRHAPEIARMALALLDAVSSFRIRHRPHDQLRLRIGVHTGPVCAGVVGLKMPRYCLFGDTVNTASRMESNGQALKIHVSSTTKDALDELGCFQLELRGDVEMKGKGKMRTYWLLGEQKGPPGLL
# Assay: Stimulation of cGMP production in NIH3T3 cells
# Format: cell-based, Murine
row,SMILES,NPR-B stimulation activity / cGMP production compared with wtCNP22 (in words)
1,CC[C@H](C)[C@@H]1NC(=O)[C@H](CCCNC(=N)N)NC(=O)[C@H](CC(=O)O)NC(=O)[C@H](CC(C)C)NC(=O)[C@H](CCCCN)NC(=O)[C@H](CC(C)C)NC(=O)[C@H](CO)NC(=O)[C@H](Cc2ccccc2)NC(=O)[C@@H](NC(=O)CNC(=O)[C@H](CCCNC(=N)N)NC(=O)[C@H](CO)NC(=O)[C@H](CC(C)C)NC(=O)CN)CSSC[C@@H](C(=O)O)NC(=O)CNC(=O)[C@H](CC(C)C)NC(=O)CNC(=O)[C@H](CO)NC(=O)[C@H](CCSC)NC(=O)[C@H](CO)NC(=O)CNC1=O [AB] (H-GLSRGCFSLKLDRIGSMSGLGC-OH; disulfide 6-22 (inferred); N-terminus and C-terminus assumed),substantially similar NPR-B stimulation activity as wtCNP22
2,CC[C@H](C)[C@@H]1NC(=O)[C@H](CCCNC(=N)N)NC(=O)[C@H](CC(=O)O)NC(=O)[C@H](CC(C)C)NC(=O)[C@H](CCCCN)NC(=O)[C@H](CC(C)C)NC(=O)CNC(=O)[C@H](Cc2ccccc2)NC(=O)[C@@H](NC(=O)CNC(=O)[C@H](CCCNC(=N)N)NC(=O)[C@H](CO)NC(=O)[C@H](CC(C)C)NC(=O)CNC(=O)[C@H](CCCNC(=N)N)NC(=O)[C@H](CCCNC(=N)N)NC(=O)[C@H](CC(N)=O)NC(=O)[C@H](C)NC(=O)CN)CSSC[C@@H](C(=O)O)NC(=O)CNC(=O)[C@H](CC(C)C)NC(=O)CNC(=O)[C@H](CO)NC(=O)[C@H](CCSC)NC(=O)[C@H](CO)NC(=O)CNC1=O [Analog AY] (H-GANRRGLSRGCFGLKLDRIGSMSGLGC-OH; disulfide 11-27 (inferred); N-terminus and C-terminus assumed),equivalent NPR-B stimulation activity as wtCNP22
3,CC[C@H](C)[C@@H]1NC(=O)[C@H](CCCNC(=N)N)NC(=O)[C@H](CC(=O)O)NC(=O)[C@H](CC(C)C)NC(=O)[C@H](CCCCN)NC(=O)[C@H](CC(C)C)NC(=O)CNC(=O)[C@H](Cc2ccccc2)NC(=O)[C@@H](NC(=O)CNC(=O)[C@H](CCCCN)NC(=O)[C@H](CO)NC(=O)[C@H](CC(C)C)NC(=O)CNC(=O)[C@H](CCC(N)=O)NC(=O)[C@H](CO)NC(=O)[C@H](CC(C)C)NC(=O)[C@H](CCCNC(=N)N)NC(=O)[C@H](C)NC(=O)[C@@H](NC(=O)[C@H](C)NC(=O)[C@H](Cc2c[nH]c3ccccc23)NC(=O)[C@H](C)NC(=O)[C@H](CCCCN)NC(=O)[C@H](Cc2ccccc2)NC(=O)[C@H](C)NC(=O)[C@H](CCCNC(=N)N)NC(=O)[C@H](CCC(=O)O)NC(=O)CN)C(C)C)CSSC[C@@H](C(=O)O)NC(=O)CNC(=O)[C@H](CC(C)C)NC(=O)CNC(=O)[C@H](CO)NC(=O)[C@H](CCSC)NC(=O)[C@H](CO)NC(=O)CNC1=O [CE] (H-GERAFKAWAVARLSQGLSKGCFGLKLDRIGSMSGLGC-OH; disulfide 21-37 (inferred); N-terminus and C-terminus assumed),comparable NPR-B stimulation activity as CNP22
4,CC[C@H](C)[C@@H]1NC(=O)[C@H](CCCNC(=N)N)NC(=O)[C@H](CC(=O)O)NC(=O)[C@H](CC(C)C)NC(=O)[C@H](CCCNC(=N)N)NC(=O)[C@H](CC(C)C)NC(=O)CNC(=O)[C@H](Cc2ccccc2)NC(=O)[C@@H](NC(=O)CNC(=O)[C@H](CCCNC(=N)N)NC(=O)[C@H](CO)NC(=O)[C@H](CC(C)C)NC(=O)CN)CSSC[C@@H](C(=O)O)NC(=O)CNC(=O)[C@H](CC(C)C)NC(=O)CNC(=O)[C@H](CO)NC(=O)[C@H](CCSC)NC(=O)[C@H](CO)NC(=O)CNC1=O [BH] (H-GLSRGCFGLRLDRIGSMSGLGC-OH; disulfide 6-22),substantially similar NPR-B stimulation activity as wtCNP22
5,CC[C@H](C)[C@@H]1NC(=O)[C@H](CCCNC(=N)N)NC(=O)[C@H](CC(=O)O)NC(=O)[C@H](CC(C)C)NC(=O)[C@H](CCCCN)NC(=O)[C@H](CC(C)C)NC(=O)CNC(=O)[C@H](Cc2ccccc2)NC(=O)[C@@H](NC(=O)CNC(=O)[C@H](CCCCN)NC(=O)[C@H](CO)NC(=O)[C@H](CC(C)C)NC(=O)CNC(=O)[C@H](CCCCN)NC(=O)[C@H](CCCCN)NC(=O)[C@H](CC(N)=O)NC(=O)[C@H](C)NC(=O)CNC(=O)[C@H](CCCCN)NC(=O)[C@H](Cc2ccc(O)cc2)NC(=O)[C@H](CCCCN)NC(=O)[C@H](CCCNC(=N)N)NC(=O)[C@H](C)NC(=O)[C@H](CC(N)=O)NC(=O)[C@@H]2CCCN2C(=O)[C@H](Cc2c[nH]cn2)NC(=O)[C@H](CCC(=O)O)NC(=O)[C@@H](N)CCC(N)=O)CSSC[C@@H](C(=O)O)NC(=O)CNC(=O)[C@H](CC(C)C)NC(=O)CNC(=O)[C@H](CO)NC(=O)[C@H](CCSC)NC(=O)[C@H](CO)NC(=O)CNC1=O [BL],comparable NPR-B stimulation activity as CNP22
6,CC[C@H](C)[C@@H]1NC(=O)[C@H](CCCNC(=N)N)NC(=O)[C@H](CC(=O)O)NC(=O)[C@H](CC(C)C)NC(=O)[C@H](CCCCN)NC(=O)[C@H](CC(C)C)NC(=O)CNC(=O)[C@H](Cc2ccccc2)NC(=O)[C@@H](NC(=O)CNC(=O)[C@H](CO)NC(=O)CNC(=O)[C@H](CCC(N)=O)NC(=O)[C@@H](NC(=O)[C@H](CCSC)NC(=O)[C@H](CCCCN)NC(=O)[C@@H]2CCCN2C(=O)[C@@H](N)CO)C(C)C)CSSC[C@@H](C(=O)N[C@@H](CCCCN)C(=O)N[C@H](C(=O)N[C@@H](CC(C)C)C(=O)N[C@@H](CCCNC(=N)N)C(=O)N[C@@H](CCCNC(=N)N)C(=O)N[C@@H](Cc2c[nH]cn2)C(=O)O)C(C)C)NC(=O)CNC(=O)[C@H](CC(C)C)NC(=O)CNC(=O)[C@H](CO)NC(=O)[C@H](CCSC)NC(=O)[C@H](CO)NC(=O)CNC1=O [CD] (H-SPKMVQGSGCFGLKLDRIGSMSGLGCKVLRRH-OH; disulfide 10-26 (inferred); N-terminus and C-terminus assumed),comparable NPR-B stimulation activity as wtCNP22; also recorded: comparable NPR-B stimulation activity as CNP22
7,CC[C@H](C)[C@@H]1NC(=O)[C@H](CCCNC(=N)N)NC(=O)[C@H](CC(=O)O)NC(=O)[C@H](CC(C)C)NC(=O)[C@H](CCCCN)NC(=O)[C@H](CC(C)C)NC(=O)CNC(=O)[C@H](Cc2ccccc2)NC(=O)[C@@H](NC(=O)CNC(=O)[C@H](CCCCN)NC(=O)[C@H](CO)NC(=O)[C@H](CC(C)C)NC(=O)CNC(=O)[C@H](CCCNC(=N)N)NC(=O)[C@H](C)NC(=O)[C@H](CC(N)=O)NC(=O)[C@@H]2CCCN2C(=O)[C@H](Cc2c[nH]cn2)NC(=O)[C@H](CCC(=O)O)NC(=O)[C@H](CCC(N)=O)NC(=O)[C@H](CC(C)C)NC(=O)[C@H](CC(C)C)NC(=O)[C@H](CCCNC(=N)N)NC(=O)[C@H](C)NC(=O)[C@H](Cc2c[nH]c3ccccc23)NC(=O)[C@H](C)NC(=O)[C@H](C)N)CSSC[C@@H](C(=O)O)NC(=O)CNC(=O)[C@H](CC(C)C)NC(=O)CNC(=O)[C@H](CO)NC(=O)[C@H](CCSC)NC(=O)[C@H](CO)NC(=O)CNC1=O [CB] (H-AAWARLLQEHPNARGLSKGCFGLKLDRIGSMSGLGC-OH; disulfide 20-36 (inferred); N-terminus and C-terminus assumed),comparable NPR-B stimulation activity as CNP22
8,"CC[C@H](C)[C@@H]1NC(=O)[C@H](CCCNC(=N)N)NC(=O)[C@H](CC(=O)O)NC(=O)[C@H](CC(C)C)NC(=O)[C@H](CCCCN)NC(=O)[C@H](CC(C)C)NC(=O)CNC(=O)[C@H](Cc2ccccc2)NC(=O)[C@@H](NC(=O)CNC(=O)[C@H](CCCNC(=N)N)NC(=O)[C@H](CO)NC(=O)[C@H](CC(C)C)NC(=O)CNC(=O)[C@H](CCCNC(=N)N)NC(=O)CCOCCOCCOCCOCCOCCOCCOCCOCCOCCOCCOCCOC)CSSC[C@@H](C(=O)O)NC(=O)CNC(=O)[C@H](CC(C)C)NC(=O)CNC(=O)[C@H](CO)NC(=O)[C@H](CCSC)NC(=O)[C@H](CO)NC(=O)CNC1=O [PEO12-R-CNP22, K4R] ({CH3O(CH2CH2O)11CH2CH2CO}-RGLSRGCFGLKLDRIGSMSGLGC-OH; disulfide 7-23)",substantially the same NPR-B stimulation activity as CNP22
